Results from PubChem BioAssay AID1963576 (National Center for Advancing Translational Sciences (NCATS), 2024).
Screen size: about 46,000 compounds; about 60 (0.1%) were called active. Roughly 3% stayed inconclusive and do not appear here. Calls follow the shape of the dose curve; as a rule, active = well fitted inhibition curve with a large enough effect; inconclusive = small, poorly fitted or top-dose-only effect; inactive = no such curve, though single readings can be large or run the other way. The list shows a part of the results.

Experiment: Primary qHTS assay for Inhibitors of ovarian cancer metastasis using an organotypic tumor microenvironment (TME) model. Also: nearly all actives have a fitted effect of over 65% in size.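 As to activity change, negative = inhibition: plate controls were DMSO wells for no effect and tomatine positive control wells for full effect.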
Conditions: SKOV3ip1-GFP adhesion/invasion on 3D omental model, fluorescence; series mostly up to 45.8 µM; activity change, negative = inhibition: at the top concentration
Method in brief: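 Primary human omental fibroblast/mesothelial 3D culture pre-formed 48 h. SKOV3ip1-GFP cells added with compounds (0.36-46 umol/L), incubated 2 h RT/16 h 37 C, fixed; GFP cells quantified at 488/509 nm.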

Row | Compound | outcome | activity change, negative = inhibition
1 | O=C(COc1ccc(F)cc1)Nc1ccc2nc(SCC(=O)N3CCCC3)sc2c1 | inactive | 
2 | CCOc1ccc(S(=O)(=O)NCC(c2ccc(N(C)C)cc2)N2CCCC2)cc1 (stereo not given) |  | inactive: -1.6%
3 | Cc1ccc(-c2cn3c(n2)sc2cc(C(=O)NCCC4=CCCCC4)ccc23)c(C)c1 |  | inactive: 1.39%
4 | COCCn1c(CNC(=O)c2cccc(N(C)C)c2)nc2cccnc21 |  | inactive: -5.35%
5 | CC(=O)c1ccc(N2CCN(C(=O)C3CCN(S(=O)(=O)c4ccc(Br)s4)CC3)CC2)cc1 |  | inactive: -5.32%
6 | COc1cc(OC)c(NS(=O)(=O)c2cc3c(cc2C)NC(=O)CO3)cc1Cl |  | inactive: -6.31%
7 | COCCCNC(=O)c1cn(CC(C)C)c(=O)c2c1c1ccccc1n2C |  | inactive: -0.919%
8 | CCOc1ccc(OCC)c(NC(=O)c2nnn(Cc3cc(Br)ccc3OC)c2N)c1 | inactive | 
9 | Cc1nc2scc(C)n2c(=O)c1S(=O)(=O)Nc1cccc(O)c1 |  | inactive: -9.39%
10 | CCN(Cc1ccccc1)C(=O)CCS(=O)(=O)c1cc2c(cc1Cl)NC(=O)CO2 | inactive | 
11 | CCCCn1c(=O)n(Cc2ccccc2F)c(=O)c2[nH]c(Cc3ccc(NC(C)=O)cc3)nc21 |  | inactive: -22.4%
12 | Cc1ccc(NC(=O)c2nc(S(C)(=O)=O)ncc2N(Cc2ccco2)Cc2ccccc2F)c(C)c1 |  | inactive: 2.3%
13 | CCOc1cccc2sc(NC(=O)c3ccc(S(=O)(=O)N4CCCc5ccccc54)cc3)nc12 |  | inactive: 0.289%
14 | Cc1ccccc1S(=O)Cc1ccc(C(=O)NC2CCCCCC2)o1 (stereo not given) |  | inactive: 4.87%
15 | Cc1ccc(CCNC(=O)c2ccc3c(=O)n(-c4ccc(C)cc4)c(=O)[nH]c3c2)cc1 |  | inactive: -9.79%
16 | Cc1ccc(C)c(NC(=O)Nc2nnc(N(CC(C)C)CC(C)C)s2)c1 |  | inactive: -9.43%
17 | CCOC(=O)c1c(C)[nH]c(C)c1S(=O)(=O)N1CCC(C(=O)N2CCN(c3cccc(C)c3)C(C)C2)CC1 (stereo not given) | inactive | 
18 | CCCOc1ccc(C2c3c(oc4ccccc4c3=O)C(=O)N2c2ccc(C)cn2)cc1OCC (stereo not given) |  | inactive: -1.8%
19 | CCOC(=O)c1ccc(CN(Cc2ccc(F)cc2)S(=O)(=O)c2ccc(F)cc2)cc1 |  | inactive: -5.88%
20 | Cc1cc2oc(C(=O)Nc3sc4c(c3C(=O)NCc3ccco3)CCC4)cc(=O)c2cc1C |  | inactive: 1.78%
21 | Cc1ccc2c(CNCc3cccc(Cl)c3)c(C(=O)O)n(Cc3ccc(F)cc3Cl)c2c1 |  | inactive: 2.26%
22 | Cc1ccc(C(=O)Nc2ccc3nc(SCC(=O)N4CCc5ccccc54)sc3c2)cc1 | inactive | 
23 | O=C(Cn1cc(SCc2cccc(F)c2)c2ccccc21)N1CCCC1 |  | inactive: -1.9%
24 | O=C(CNS(=O)(=O)c1cccs1)N1CCN(c2ccccc2Cl)CC1 |  | inactive: 0.516%

Row | Compound | outcome | activity change, negative = inhibition
25 | COc1ccc2oc(=O)c(-c3nc(-c4cc(OC)c(OC)c(OC)c4)no3)cc2c1 | inactive | 
26 | Cc1c(Cl)cccc1NC(=O)N1CCC(CN2CCCC2)CC1 |  | inactive: -4.76%
27 | COc1cccc(-n2nnc3c(sc4nc(C)cc(C)c43)c2=O)c1 |  | inactive: 0.599%
28 | CC1=C(c2ccc(C)cc2)S(=O)(=O)N(Cc2ccc(C(=O)NCc3cccc(C)c3)cc2)C1=O |  | inactive: 7.9%
29 | COc1ccccc1CNS(=O)(=O)c1ccc2[nH]c3c(c2c1)CCCCC3 |  | inactive: -17.4%
30 | CCC(Sc1nc2ccccc2c2nc(CCc3c(C)n[nH]c3C)nn12)C(=O)Nc1ccc(F)cc1 (stereo not given) | inactive | 
31 | COc1ccc(N2CCN(C(=O)c3cnc(N4CCCC4)nc3C)CC2)cc1 |  | inactive: 4.41%
32 | CSc1ccc(CNC(=O)CCn2ccc3cc(S(=O)(=O)N4CCC(C)CC4)ccc32)cc1 |  | inactive: -2.3%
33 | COc1ccc(CCNC(=O)Cc2c(C)c3c(cc(C)c4c(C)coc43)oc2=O)cc1 |  | inactive: -0.247%
34 | COc1ccc(-c2cc3nc(-c4ccccc4)cc(C(F)(F)F)n3n2)cc1 |  | inactive: -10.3%
35 | COCCCNC(=O)Cn1c(=O)n(Cc2ccc(C(=O)NCc3ccc(C)cc3)cc2)c(=O)c2ccccc21 |  | inactive: 5.05%
36 | CCCCN(CCCC)CC(O)c1cc(Cl)cc2c1-c1ccc(Cl)cc1C2=Cc1ccc(Cl)cc1 (stereo not given) |  | inactive: 5.27%
37 | COC(=O)c1ccc(NC(=O)CSc2nc3ccc(OC)cc3[nH]2)cc1 |  | inactive: 3.52%
38 | Cc1ccc(NC(=O)CSc2nc(C)c(Cc3ccccc3)c(=O)[nH]2)cc1 |  | inactive: -1.91%
39 | O=C(Nc1sc2c(c1C(=O)Nc1ccccc1Cl)CCCC2)c1ccccc1F |  | inactive: -9.3%
40 | COC(=O)c1c(NC(=O)c2cc(=O)c3ccc(C)c(C)c3o2)sc2c1CCCC2 |  | inactive: -6.61%
41 | COc1ccc(CCNC(=O)CN(c2ccccc2OC)S(=O)(=O)c2ccc(C)cc2)cc1 | inactive | 
42 | CCc1ccc(NC(=O)c2cc(S(=O)(=O)NC3CCCC3)ccc2F)cc1 | inactive | 
43 | Cc1ccc(NC(=O)c2c(NC(=O)c3ccco3)sc3c2CCC(C(C)(C)C)C3)c(C)c1 (stereo not given) |  | inactive: 1.56%
44 | COc1cc(OC)c(NC(=O)c2nnn(Cc3ccc(C)cc3)c2N)cc1Cl |  | inactive: -6.89%
45 | Cc1ccc(NC(=O)CN2C(=O)CSc3ccc(S(=O)(=O)N4CCCC4)cc32)cc1F |  | inactive: -5.34%
46 | COC(=O)c1cc(NC(=O)c2oc(=O)c3ccccc3c2-c2ccccc2)cc(C(=O)OC)c1 | inactive | 
47 | CCOc1ccc(NC(=O)c2oc3ccccc3c2NC(=O)Cc2ccc(F)cc2)cc1 |  | inactive: -5.27%
48 | CCC(C)c1ccc(OCC(=O)Nc2cccc(-c3nc4ncccc4o3)c2)cc1 (stereo not given) |  | inactive: -14.7%

Row | Compound | outcome | activity change, negative = inhibition
49 | Cc1cc(C)c2oc(-c3cccc(NC(=O)c4ccc(Br)o4)c3)nc2c1 | inactive | 
50 | Cc1ccccc1Cn1cc(CCC(=O)NC(C)c2ccccc2)c2ccccc21 (stereo not given) |  | inactive: 6.67%
51 | COc1ccc(Br)cc1CNC(=O)Cn1c(=O)c2cccn2c2ccc(F)cc21 | inactive | 
52 | O=C(Cn1ncc2c3ccccc3n(Cc3ccc(Cl)cc3)c2c1=O)N1CCCCCC1 |  | inactive: 2.77%
53 | COc1cccc(-c2cn3c(n2)sc2cc(C(=O)NC4CCCCCC4)ccc23)c1 |  | inactive: -2.39%
54 | O=C(Cc1ccc(F)cc1)NC1CC(=O)N(c2ccc3c(c2)OCCO3)C1 (stereo not given) |  | inactive: -9.23%
55 | CCN(CC)c1nn2c(=O)c(C(=O)NCc3ccc(OC)cc3OC)cnc2s1 |  | inactive: -3.19%
56 | Clc1ccccc1N1CCN(c2ncnc3c2c(-c2ccccc2)cn3-c2ccccc2)CC1 |  | inactive: 3.87%
57 | O=C(NCC(c1cccs1)S(=O)(=O)c1cccs1)c1ccccc1F (stereo not given) |  | inactive: -1.57%
58 | Cc1ccccc1NC(=O)CCC(=O)N1CCSc2ccccc21 |  | inactive: -5.19%
59 | CC(=O)N1c2ccc(S(=O)(=O)NCC3CCC(C(=O)NC(C)(C)C)CC3)cc2CC1C (stereo not given) |  | inactive: -5.34%
60 | Cc1ccc(S(=O)(=O)N(CC(=O)Nc2ccc(C(C)C)cc2)Cc2ccccc2)cc1 |  | inactive: -0.0634%
61 | O=C(Nc1ccc2c(c1)CCCN2C(=O)c1cccs1)c1cccc(C(F)(F)F)c1 |  | inactive: -0.82%
62 | Cc1ccc(-n2nc3ccc(NC(=O)c4oc5ccccc5c4C)cc3n2)cc1 |  | inactive: -3.97%
63 | COc1ccccc1CNC(=O)c1ccccc1NC(=O)c1nsc2ccccc12 |  | inactive: 16.6%
64 | Cc1cccc(N2CCN(C(=O)c3cc(S(=O)(=O)N4CCC(C)CC4)cn3C)CC2)c1C |  | inactive: -8.51%
65 | Clc1cccc(-n2ncc3c(NC4CCCCC4)ncnc32)c1 |  | inactive: -27%
66 | CCOc1ccc(-c2nnc(SCC(=O)NC3CCCC3)nc2-c2ccc(OCC)c(OC)c2)cc1OC |  | inactive: 7.53%
67 | CCN(C(=O)c1noc2c1COc1ccc(C)cc1-2)c1cccc(C)c1 | inactive | 
68 | CCOC(=O)C1CCN(C(=O)c2cc3ccc4cccnc4c3[nH]2)CC1 |  | inactive: 1.84%
69 | CCOc1ccc(CCNC(=O)C2CCN(c3ncnc4c3nc3n4CCCCC3)CC2)cc1 |  | inactive: -7.16%
70 | O=C(NCCCN1CCN(c2ccccc2)CC1)c1nnc(Cc2c(F)cccc2Cl)o1 |  | inactive: -2.01%
71 | O=C(NCc1ccc(Cl)cc1)C(=O)NCC(c1cccs1)S(=O)(=O)c1ccc(Cl)cc1 (stereo not given) |  | inactive: -3.49%
72 | COC(=O)c1sccc1S(=O)(=O)N(CC(=O)NCc1ccccc1)c1ccccc1 |  | inactive: 0.94%

Row | Compound | outcome | activity change, negative = inhibition
73 | Cc1ccc(CNC(=O)C(=O)NCC(c2cccs2)S(=O)(=O)c2ccc(C)cc2)cc1 (stereo not given) |  | inactive: -8.15%
74 | COc1ccc(NS(=O)(=O)c2ccc3c(c2)C(C(C)C)C(=O)N3)cc1 (stereo not given) |  | inactive: -1.31%
75 | CCn1c(C)c(C2N3CC4(C)CN2CC(CC)(C3)C4=O)c2ccccc21 (stereo not given) |  | inactive: -0.325%
76 | CCc1nn(CC(=O)NCCC(C)C)c(=O)c2cc3occc3n12 | inactive | 
77 | COc1ccc(NC(=O)CSc2nc3c([nH]c4ccccc43)c(=O)n2C)cc1 |  | inactive: 14.7%
78 | Nc1c(C(=O)Nc2ccccc2Cl)c2ccccn2c1C(=O)c1ccc(Cl)cc1 | inactive | 
79 | Cc1ccc(CNC(=O)CSc2ncc(S(=O)(=O)c3ccc(Br)cc3)c(=O)[nH]2)cc1 |  | inactive: 19.2%
80 | COc1cccc(CC(=O)Nc2ccc3nc(N4CCC(C)CC4)cc(C)c3c2)c1 | inactive | 
81 | COc1ccc(Nc2ncnc3c2cnn3-c2ccc(C)cc2C)cc1 |  | inactive: -5.43%
82 | Cc1nn(C(=O)c2ccccc2F)c(C)c1S(=O)(=O)N1CCOCC1 |  | inactive: -11.5%
83 | Cc1c(C(=O)N2CCC(C)CC2)c(S(=O)(=O)NCc2ccccc2)c(C)n1C |  | inactive: -3.08%
84 | CC(=O)c1cccc(NC(=O)Cn2c(=O)c(CNc3ccc(C)cc3)cc3cc4c(cc32)OCCO4)c1 |  | inactive: -0.437%
85 | COc1ccccc1C(=O)Nc1ccc2nc(N3CCC(C)CC3)cc(C)c2c1 | inactive | 
86 | Cc1ccc(C(=O)Nc2ccc(Br)cc2)cc1S(=O)(=O)N1CCOCC1 | inactive | 
87 | CCOc1ccccc1NS(=O)(=O)c1c(C)nc2sccn2c1=O | inactive | 
88 | CCOc1cc(C(=O)Nc2ccc(Cl)c(-c3nc4ccccc4[nH]3)c2)cc(OCC)c1OCC |  | inactive: 2.57%
89 | Cc1cc(C)c(NC(=O)Cn2c(SCC(=O)NCc3ccccc3)nc3ccccc32)c(C)c1 | inactive | 
90 | Cc1ccc(-c2sc(C(=O)Nc3ccc(Br)cc3)cc2CC(=O)O)cc1 |  | inactive: 5.04%
91 | CCn1c(=O)c2cc(C(=O)N(CCCOC(C)C)Cc3ccco3)sc2c2ccccc21 | inactive | 
92 | COc1cc(Cl)c(C)cc1NC(=O)CCn1c(=O)c2cccn2c2cccnc21 |  | inactive: -19.3%
93 | CSc1ccc(C2c3[nH]c4ccccc4c3CCN2C(=O)CCc2ccccc2)cc1 (stereo not given) |  | inactive: -1.78%
94 | COc1ccc(-c2cn3cccnc3n2)cc1NC(=O)c1c(F)cccc1F |  | inactive: -3.34%
95 | COc1cccc(CNC(=O)C2CCN(S(=O)(=O)c3ccc4c(ccn4C)c3)CC2)c1 | inactive | 
